Test results from PubChem BioAssay AID1476 (National Center for Advancing Translational Sciences (NCATS), 2009).
Values joined by “and” are separate entries in the source; they are usually repeats but may differ in a detail not shown here. Identical values can stand only once. Screen size: about 200,000 compounds; about 4,500 (2.2%) were called active. Inconclusive means that the source gave no clear call. Such entries were picked first, then a sample of the others. The call rests on the fitted dose curve; in most records, active means well fitted inhibition curve with a large enough effect; inconclusive means small, poorly fitted or top-dose-only effect, or effect the other way; inactive means flat fitted curve, though single readings scatter. Where the call is inconclusive, the potency comes from a doubtful curve fit.

The compounds below were run against Cruzipain (Trypanosoma cruzi) (UniProt P25779) (assay: qHTS Assay for Promiscuous and Specific Inhibitors of Cruzain (without detergent)). Conditions: purified cruzain, Z-FR-AMC fluorescence, no detergent.
Method in brief: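 Purified cruzain at 1.5 nM, pre-incubated 15 min with compound at room temperature in 100 mM sodium acetate pH 5.5, 5 mM DTT, 0.00005% Triton X-100. Reaction started with 2 uM Z-FR-AMC; AMC fluorescence increase over 60 s gives rate.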
Further: nearly all actives have a fitted effect of over 40% in size.
Potency means the concentration at half of the fitted maximal effect; tags describe the fitted curve by direction and shape.
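Wherever max response, negative = inhibition is given: plate controls were enzyme without inhibitor for no effect and buffer without enzyme for full effect.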

UniProt P25779, sequence (P25779 whole entry, looked up): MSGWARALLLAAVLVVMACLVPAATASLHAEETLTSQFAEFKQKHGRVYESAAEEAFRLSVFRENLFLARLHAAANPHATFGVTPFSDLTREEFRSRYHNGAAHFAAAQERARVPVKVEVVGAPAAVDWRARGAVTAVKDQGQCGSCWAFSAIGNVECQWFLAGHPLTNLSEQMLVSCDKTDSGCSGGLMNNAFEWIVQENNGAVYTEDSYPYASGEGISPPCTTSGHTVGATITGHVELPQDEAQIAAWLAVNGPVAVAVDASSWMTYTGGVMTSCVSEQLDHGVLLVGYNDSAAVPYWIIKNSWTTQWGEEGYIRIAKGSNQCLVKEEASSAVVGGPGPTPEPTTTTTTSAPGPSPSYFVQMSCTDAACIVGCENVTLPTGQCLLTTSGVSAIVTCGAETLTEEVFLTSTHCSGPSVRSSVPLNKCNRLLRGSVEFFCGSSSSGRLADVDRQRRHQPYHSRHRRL

| Structure (SMILES) | max response, negative = inhibition | Potency |
| --- | --- | --- |
| C1CCOC1 | inactive: 4.75% | – |
| O=C(Nc1ccc(Cl)c(Cl)c1)Nc1ccc(Br)cc1F | – | inconclusive: 31.6 µM [inhibitor, single point] |
| Cn1c(=O)c(C(=O)COC(=O)c2cc(-c3ccco3)nc3ccccc23)c(N)n(CC2CC2)c1=O | – | inconclusive: 12.6 µM [activator, partial curve] |
| CCc1cc(=O)oc2c(CN3CCN(C)CC3)c(O)c(Cl)cc12 | – | inconclusive: 39.8 µM [inhibitor, single point] |
| CCc1ccccc1NC(=O)CSc1ncc2c(n1)-c1ccccc1N(Cc1ccc(C)cc1)S2(=O)=O | inactive: -0.0994% | – |
| CCN(C(=O)Cn1ncc2c1-c1cc(C)ccc1OC2)c1cc(Cl)ccc1OC | – | inconclusive: 20 µM [activator, partial curve] |
| CCOC(=O)c1c(NC(=O)CN2C(=O)c3ccccc3C2=O)sc(Cc2ccc3c(c2)OCO3)c1C | – | active: 10 µM |
| CCN1CCCC1CNc1ncnc2c1[nH]c1ccc(F)cc12 (configuration not stated) | – | inconclusive: 7.94 µM [inhibitor, partial curve, poor fit] |
| O=C(Nc1cccc2cccc(NC(=O)c3ccco3)c12)c1ccco1 | – | active: 25.1 µM |
| CC(C)(C)NC(=O)c1ccc2c(c1)N(CC(=O)N1CCN(c3ccc(F)cc3)CC1)C(=O)C(C)(C)O2 | – | inconclusive: 39.8 µM [activator, single point] |
| Nc1c(C(=O)NC2CC2)sc2nc3c(c(-c4ccco4)c12)CC/C3=C/c1ccco1 | – | inconclusive: 6.31 µM [activator, single point] |
| N#Cc1c(N)nc(SCC(=O)C23CC4CC(CC(C4)C2)C3)c(C#N)c1-c1ccc(Cl)cc1 | – | active: 3.98 µM |
| CCN(CC)C(=O)CN1C(=O)C2(OCC(C)(c3ccccc3)CO2)c2ccccc21 (configuration not stated) | – | inconclusive: 31.6 µM [activator, single point] |
| CN(C)c1nc(OCCNC(=O)COc2ccc(Cl)cc2Cl)nc(N2CCOCC2)n1 | – | inconclusive: 31.6 µM [activator, single point] |
| Cc1cc(C)c(S(=O)(=O)ON2C(=O)c3ccccc3C2=O)cc1C | – | inconclusive: 20 µM [inhibitor, partial curve] |
| CCCN1C(=O)/C(=C2\SC(N3CCCCC3)=NC2=O)c2ccccc21 | – | inconclusive: 25.1 µM [activator, single point] |
| O=C(NCc1ccco1)c1cc2n(n1)C(C(F)(F)F)CC(c1ccc(Br)cc1)N2 (configuration not stated) | – | inconclusive: 39.8 µM [inhibitor, single point] |
| CCOC(=O)C1CCN(Cc2nc(-c3ccc(OC)c(OC)c3)no2)CC1 | – | inconclusive: 20 µM [activator, single point] |
| O=C(Nc1ccc(Br)cc1)Nc1nc2c(s1)CCCCCC2 | inactive: -2.96% | – |
| Cc1ccc(Cl)cc1N1CCN(C(=O)CN2C(=O)c3cccc4cccc2c34)CC1 | – | inconclusive: 39.8 µM [inhibitor, single point] |
| N#Cc1cccc(-c2cncnc2NCc2ccccc2)c1 | inactive: 0.989% | – |

| Structure (SMILES) | max response, negative = inhibition | Potency |
| --- | --- | --- |
| Cc1ccc(CSc2nc3ccncc3n2CC(=O)Nc2cc(C)cc(C)c2)cc1 | – | inconclusive: 39.8 µM [inhibitor, single point] |
| Cn1c(NC(=S)Nc2ccccc2)nc2ccccc21 | – | inconclusive: 31.6 µM [inhibitor, single point] |
| Cn1cccc1/C=C1\SC(=S)N(NC(=O)c2cccc(Cl)c2)C1=O | – | inconclusive: 39.8 µM [inhibitor, single point] |
| Cc1cc(C)c2nc(C(F)(F)F)nc(NCCCN3CCCC3=O)c2c1 | – | inconclusive: 31.6 µM [activator, single point] |
| CSc1ccc(CCNS(=O)(=O)c2cc(-c3cc(C)no3)ccc2C)cc1 | inactive: -5.58% | – |
| O=C(Nc1ccccc1)c1cc2c(-c3ccccc3)nn(-c3ccccc3)c2s1 | – | inconclusive: 3.98 µM [inhibitor, full curve, poor fit] |
| O=C(COC(=O)c1cn(-c2ccccc2)nc1-c1ccccc1)c1ccc([N+](=O)[O-])cc1 | – | inconclusive: 39.8 µM [inhibitor, single point] |
| CCS(=O)(=O)N1CCN(c2ccc(C(=O)NC3C4CC5CC(C4)CC3C5)cc2[N+](=O)[O-])CC1 (configuration not stated) | – | inconclusive: 25.1 µM [activator, partial curve] |
| COc1ccccc1N1CCN(C(=O)C2CCN(S(=O)(=O)c3cccs3)CC2)CC1 | – | inconclusive: 31.6 µM [activator, single point] |
| COc1ccc(Cl)cc1NC(=O)CN1CCC(n2nnc3cc(F)ccc32)CC1 | – | inconclusive: 25.1 µM [activator, partial curve] |
| Cc1c(Cl)c(S(N)(=O)=O)cc2c1=NC=NS=2(=O)O | inactive: 9.22% | – |
| Cc1cccc(N2CCN(C(=O)C3CCN(S(=O)(=O)Cc4ccccc4)CC3)CC2)c1C | inactive: 3.87% | – |
| Cc1ccc(C(=O)Nc2nnc(SCC(=O)N3CCCc4ccccc43)s2)cc1 | – | inconclusive: 31.6 µM [inhibitor, single point] |
| Cc1ccccc1NC(=O)Cn1c(=O)n(Cc2ccco2)c(=O)c2ccc(C(=O)NC3CCCC3)cc21 | inactive: 4.88% | – |
| CCn1c(=O)c(C(=O)CN2CCCc3ccccc32)c(N)n(Cc2ccccc2)c1=O | – | inconclusive: 31.6 µM [inhibitor, single point] |
| O=C(CSc1nnc(-c2ccc(F)cc2)c2ccccc12)Nc1cccc(Cl)c1 | – | active: 15.8 µM |
| Cc1n[nH]c(=S)n1/N=C/c1ccccc1OCc1ccc(Cl)cc1Cl | – | active: 15.8 µM |
| Cc1cccc(NC(=O)C(=O)NCC(c2cccnc2)N2CCN(Cc3ccccc3)CC2)c1 (configuration not stated) | inactive: 1.09% | – |
| COCCNC(=O)[C@H](C)[C@H]1C[C@]1(C)[C@H](NC(=O)OCc1ccccc1)c1ccccc1 | – | inconclusive: 31.6 µM [activator, single point] and inconclusive: 39.8 µM [activator, single point] |
| CCCN1Cc2cccc(C(=O)Nc3ccccc3F)c2C1=O | inactive: -7.44% | – |
| CCCCSC1=NN1c1nc(N)nc(C)c1CC | inactive: 9.17% | – |

| Structure (SMILES) | max response, negative = inhibition | Potency |
| --- | --- | --- |
| COc1ccc(C(=O)N2CC=C(c3ccccc3)CC2)cc1S(=O)(=O)N1CCOCC1 | – | inconclusive: 39.8 µM [activator, single point] |
| CCCC(=O)N1c2ccccc2C(=C2SC(C(=O)OC)=C(C(=O)OC)S2)C(=S)C1(C)C | – | inconclusive: 25.1 µM [inhibitor, single point] |
| CC1CN(C(=O)Nc2ccc(C(=O)NCCc3ccc(Cl)cc3)cc2)c2ccccc2S1 (configuration not stated) | inactive: 0.863% | – |
| CC1=C(C(=O)OCc2ccccc2)C(c2ccc(C3CCCCC3)cc2)NC(=O)N1CCCCCC(=O)O (configuration not stated) | – | inconclusive: 25.1 µM [activator, single point] |
| CCOc1ccc(NCc2cccn2-c2nnc(N3CCC(C(=O)NCCc4ccc(OCC)c(OCC)c4)CC3)s2)cc1 | – | inconclusive: 25.1 µM [activator, partial curve] |
| Cc1ccc(NC(=S)N/N=C/c2c(Cl)cccc2Cl)c(C)c1 | – | inconclusive: 39.8 µM [inhibitor, single point] |
| O=C(COc1ncnc2ccccc12)Nc1ccc(Cl)c([N+](=O)[O-])c1 | inactive: -10.8% | – |
| O=C1C2=C(S[C@@H]3O[C@H](CO)[C@@H](O)[C@H](O)[C@H]3O2)C(=O)c2ccccc21 | inactive: 3.68% | – |
| CCSC1=N/C(=C\c2ccc(C(=O)O)cc2)C(=O)S1 | – | inconclusive: 39.8 µM [inhibitor, single point] |
| CCOC(=O)c1[nH]c2ccccc2c1NC(=O)C1CCCCC1 | – | inconclusive: 25.1 µM [inhibitor, single point] |
| COC(=O)c1ccc(Oc2nc3c(c(=O)n(C)c(=O)n3C)n2CCC(C)C)cc1 | – | inconclusive: 39.8 µM [activator, single point] |
| CCOC(=O)c1cc(-c2ccc(OC)cc2)n(CCC(=O)NC2CCC(C)CC2)c1C (configuration not stated) | – | inconclusive: 31.6 µM [activator, single point] |
| CCOc1ccc(-c2n[nH]c3c2C(c2cccs2)N(c2ccc(Br)cc2)C3=O)cc1 (configuration not stated) | – | inconclusive: 39.8 µM [inhibitor, single point] |
| CCc1cccc(-n2nnc(-c3nc(-c4ccc5c(c4)OCO5)no3)c2C)c1 | inactive: -10.5% | – |
| COc1ccc(CN(C(=O)c2ccc(OCC(C)C)cc2)C2CCS(=O)(=O)C2)cc1 (configuration not stated) | – | inconclusive: 39.8 µM [activator, single point] |
| C[C@H]1[C@H](C)CC[C@]2(C(=O)O)CC[C@]3(C)C(=CC[C@H]4[C@]3(C)C[C@@H](O)C3[C@](C)(CO)[C@H](O)[C@@H](O)C[C@]34C)[C@H]12 (some centres not stated) | – | inconclusive: 5.01 µM [activator, single point] |
| COc1cccc(C2C=C(c3ccc(C)cc3)Nc3c(C(=O)Nc4ccc(F)cc4)cnn32)c1OC (configuration not stated) | inactive: -3.35% | – |
| CCC1=C(OC(=O)N(CC)CC)N2C(=O)OC(=NCCOC)[C@]2(Cc2ccccc2)[C@H]2C1=CC[C@H]1C(=O)N(C)C(=O)[C@H]12 | – | inconclusive: 12.6 µM [activator, partial curve] |
| CCOc1cc(C(=O)N/N=C\c2cn(CC)nc2C)cc(OCC)c1OCC | – | inconclusive: 39.8 µM [activator, single point] |
| CCN1CCN(C(c2cccc(OC)c2)c2c(O)cc(C)n(Cc3ccco3)c2=O)CC1 (configuration not stated) | – | inconclusive: 39.8 µM [inhibitor, single point] |
